From patent US8592455B2 (priority 2008, dated 2013) come the findings set out here.

The test system of test [1] is KMS11 cells. The following applies: read-out: KMS11-lluc EC50.
The test system of test [2] is KMS11 cells. The test is described as follows: cells. Particulars: Homo sapiens, KMS-11, 72 h, read-out: KMS11-lluc EC50.
In another test the test system is KMS11-luc xenograft. Particulars: mouse, in vivo.
Test [3] relates to pBad Ser112 phosphorylation. The test is described as follows: animal or person. Particulars: Mus musculus, po, read-out: percent inhibition of pBad Ser112 phosphorylation relative to total Bad.

pEC50: −log10 of the molar value. Where “and” joins values, the source holds several entries; their conditions need not be identical. Equal entries are not always repeated. Where two headings read alike, the source gives them in different places.

As to `C[C@@H]1C[C@H](N)C[C@H](c2ccncc2NC(=O)c2nc(-c3c(F)cccc3F)c(F)cc2N)C1` (stereo in doubt) [Example 133, 3-amino-N-(4-(3-amino-5-methylcyclohexyl)pyridin-3-yl)-6-(2,6-difluorophenyl)-5-fluoropicolinamide], the negative-log EC50 (pEC50) – broadly, the EC50 on a negative log10 scale, so that one unit is a factor of ten – in the test with KMS11 cells [1] was 6.62.

Consider `Nc1cc(F)c(-c2c(F)cccc2F)nc1C(=O)Nc1cnccc1[C@@H]1CC[C@H](O)[C@H](N)C1` (stereo in doubt) [Example 131, 3-amino-N-(4-(3-amino-4-hydroxycyclohexyl)pyridin-3-yl)-6-(2,6-difluorophenyl)-5-fluoropicolinamide], for which the pEC50 in the test with KMS11 cells [1] is 6.37.

Consider `Nc1cc(F)c(-c2c(F)cccc2F)nc1C(=O)Nc1cnccc1[C@@H]1CC[C@H](O)[C@H](N)C1` [Example 65, 3-amino-N-(4-((1R,3R,4S)-3-amino-4-hydroxycyclohexyl)pyridin-3-yl)-6-(2,6-difluorophenyl)-5-fluoropicolinamide], for which the pEC50 with KMS11 cells [1] is 6.80.

As to `C[C@H]1CN(c2ccncc2NC(=O)c2ccc(F)c(-c3c(F)cccc3F)n2)C[C@@H](N)[C@@H]1O` [Example 96, N-(4-((3R,4R,5S)-3-amino-4-hydroxy-5-methylpiperidin-1-yl)pyridin-3-yl)-6-(2,6-difluorophenyl)-5-fluoropicolinamide], the pEC50 in the test with KMS11 cells [2] was 7.52. Also, the tumor growth inhibition in the test on KMS11-luc xenograft is 67% and 96% and 88%. For the same molecule, the values for the inhibition at 25 mg/kg in test [3] (1 h) and in test [3] (8 h) were 0% and 24%, respectively. Moreover, the inhibition – broadly, how much of the control response was suppressed – at 50 mg/kg in test [3] (1 h) stood at 44%; in test [3] (8 h), 69%; in test [3] (24 h) it was 16%. In addition, the inhibition at 100 mg/kg was 58% in test [3] (1 h), 71% in test [3] (8 h) and 53% in test [3] (24 h).
